# According to PubChem BioAssay AID540317 (National Center for Advancing Translational Sciences (NCATS), 2011):
# Where “and” joins values, the source holds several entries; their conditions need not be identical. Equal entries are not always repeated. Among all 390,000 compounds or so, about 2,200 (0.56%) were called active. The inconclusive results got no clear call from the source; some entries with a clear call stand among them for comparison. The call rests on the fitted dose curve; in most records, active means well fitted inhibition curve with a large enough effect; inconclusive means small, poorly fitted or top-dose-only effect; inactive means no such curve, though single readings can be large or run the other way. Potencies beside an inconclusive call are fits to weak or partial responses and may not hold up.
# Target: Chromobox protein homolog 1 (Homo sapiens) (UniProt P83916)
# UniProt P83916, sequence (P83916 whole entry, looked up): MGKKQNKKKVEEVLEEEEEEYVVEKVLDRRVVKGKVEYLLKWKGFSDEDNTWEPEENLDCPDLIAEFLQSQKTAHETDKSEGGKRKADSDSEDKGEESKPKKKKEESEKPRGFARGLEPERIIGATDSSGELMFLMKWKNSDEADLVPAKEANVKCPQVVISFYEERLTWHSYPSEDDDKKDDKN
# Test: HTS for Inhibitors of HP1-beta Chromodomain Interactions with Methylated Histone Tails; further: nearly all actives have a fitted effect of over 70% in size
# Conditions: AlphaScreen HP1-beta / biotin-H3K9me3 peptide binding; series mostly up to 114 µM
# Procedure, shortened: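 HP1-beta protein (50 nM final) preincubated 30 min at room temperature with biotinylated H3(1-18)K9me3 peptide (50 nM) in PBS pH 7.4, 0.01% Tween-20, then compound added for 30 min. AlphaScreen streptavidin donor/nickel chelate acceptor beads (10 ug/mL final), 30 min dark, luminescence read.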
# Potency means the concentration at half of the fitted maximal effect; tags describe the fitted curve by direction and shape.
row,SMILES,Potency
1,Nc1nc(-c2cccs2)c(-c2cccs2)s1,"inconclusive: 39.8 µM [inhibitor, partial curve]"
2,CCOC(=O)N1CCN(Cc2ccc(O)c3ncccc23)CC1,"inconclusive: 14.1 µM [inhibitor, full curve]"
3,CC1=NN(c2ccc(C(=O)O)c(N)c2)C(=O)C1,active: 70.8 µM
4,Cc1cc(C)c2c(CC(=O)Nc3ccccc3C(F)(F)F)coc2c1,inactive
5,C(=N\Nc1nc2ccccc2[nH]1)/c1c[nH]c2ccccc12,"inconclusive: 56.2 µM [inhibitor, single point]"
6,Cc1cccc(-c2noc(CN(C(=O)c3ccc(Br)o3)C(C)C)n2)c1,"inconclusive: 50.1 µM [inhibitor, partial curve, poor fit]"
7,COc1ccc(NC(=O)Cc2coc3ccc4ccccc4c23)cc1S(=O)(=O)N1CCOCC1,"inconclusive: 31.6 µM [inhibitor, partial curve, poor fit]"
8,CCOc1ccccc1NC(=S)Nn1cnnc1,"inconclusive: 15.8 µM [inhibitor, full curve]"
9,CCn1c(CSCc2c(Cl)cccc2Cl)n[nH]c1=S,"inconclusive: 70.8 µM [inhibitor, partial curve, poor fit]"
10,N#C/C(=C/C1=C(N2CCOCC2)C(=C/c2ccc(Cl)cc2Cl)/CC1)C(=O)Nc1ccccc1F,"inconclusive: 2 µM [inhibitor, full curve, poor fit]"
11,N#CC(=C1Nc2ccccc2N1)S(=O)(=O)c1ccccc1,inactive
12,COC(=O)C1=C(C(=O)OC)[C@@H]2N(C)c3ccc(OC)cc3[C@@]23C[C@@H](C(=O)OC)N(C(=O)C2CCC2)C3=N1,"inconclusive: 20 µM [inhibitor, full curve]"
13,CC(C)(C)C(=O)Nc1ccccc1C(=O)OCc1cc(=O)n2ccsc2n1,inactive
14,Fc1ccc(CN2CCCCCCC2)c(F)c1,"inconclusive: 44.7 µM [inhibitor, partial curve]"
15,COc1ccc(N=N/C(=C\O)C(=O)c2cccs2)cc1,"inconclusive: 12.6 µM [inhibitor, full curve]"
16,Cc1ccsc1-c1n[nH]c(=S)n1C1CCCCC1,"inconclusive: 39.8 µM [inhibitor, single point]"
17,CCOC(=O)c1ccc2[nH]c(C)c(C)c2c1,"inconclusive: 70.8 µM [inhibitor, partial curve, poor fit]"
18,N#Cc1nc(COc2ccc(Cl)cc2)oc1NCc1ccc2c(c1)OCO2,"inconclusive: 25.1 µM [inhibitor, partial curve]"
19,Cc1ccc(NC(=O)CSc2nnc(-c3cccnc3)n2CCN2CCCCC2)cc1,"inconclusive: 25.1 µM [inhibitor, single point]"
20,COc1ccccc1NC(=O)c1cc2ccccc2o/c1=N\O,inactive
21,Cc1ccc(C)c(N2CCN(CCCNC(=O)c3ccc4nc(CCc5ccccc5)oc4c3)CC2)c1,inactive
22,Cc1ccc(CNC(=O)CCCC(=O)Nc2cc(C)on2)cc1,"inconclusive: 8.91 µM [inhibitor, full curve]"
23,c1ccc(-c2ccc(OCCOCCn3cncn3)cc2)cc1,"inconclusive: 50.1 µM [inhibitor, partial curve]"

row,SMILES,Potency
1,CC(C)CN(C(=O)c1cccc(S(=O)(=O)N2CCN(Cc3ccccc3)CC2)c1)C1CCS(=O)(=O)C1 (centres undefined),inactive
2,CC(=O)c1cccc(NC(=O)CN(c2cc(C)cc(C)c2)S(=O)(=O)c2c(C)noc2C)c1,inactive
3,Cc1cc(Cl)c(OCCCN2CCCCC2)c(Br)c1,"inconclusive: 70.8 µM [inhibitor, single point]"
4,CCN(Cc1ccncc1)C(=O)CCc1nnc(CCc2ccc(OC)cc2)o1,inactive
5,CCc1n[nH]c(=S)n1/N=C/c1cc(OC)cc([N+](=O)[O-])c1O,"inconclusive: 44.7 µM [inhibitor, partial curve]"
6,O=C(COC(=O)c1cc(S(=O)(=O)N2CCOCC2)c(Cl)cc1Cl)NCc1ccco1,"inconclusive: 70.8 µM [inhibitor, single point]"
7,COc1ccc(Cl)cc1NC(=O)c1c(NCc2cccnc2)sc2c1CCC(C)C2 (centres undefined),"inconclusive: 50.1 µM [inhibitor, partial curve, poor fit]"
8,COc1ccc(NC(=O)/C=C/c2ccc(Br)o2)cn1,"inconclusive: 70.8 µM [inhibitor, single point]"
9,CCCCNCCCOc1ccc(C)cc1Br,"inconclusive: 44.7 µM [inhibitor, partial curve, poor fit]"
10,Clc1ccc(OCCCCCN2CCCC2)c(Br)c1,"inconclusive: 17.8 µM [inhibitor, full curve]"
11,S=c1[nH]nc(NCCCN2CCOCC2)s1,"inconclusive: 14.1 µM [inhibitor, full curve, poor fit]"
12,COc1cccc(N=Nc2ccc(O)c3ncccc23)c1,"inconclusive: 10 µM [inhibitor, partial curve]"
13,COc1ccc(OC)c(NC(=O)CSc2nc3[nH]c(=O)[nH]c(=O)c3s2)c1,inactive
14,CC1CCN(C(=O)CSc2nnc(Cc3cccn3C)n2-c2ccc(F)cc2)CC1,inactive
15,COc1cccc(NC(=O)CN(C)CC(=O)Nc2ccc(C)c([N+](=O)[O-])c2)c1,"inconclusive: 56.2 µM [inhibitor, partial curve, poor fit]"
16,Cc1[nH]c2ccccc2c1C1=NNC(=Nc2ccc(F)cc2)SC1,"inconclusive: 31.6 µM [inhibitor, full curve]"
17,CCCOc1ccc(/C=N/Nc2ccccc2[N+](=O)[O-])c(OCCC)c1,active: 22.4 µM
18,CSC1=N/C(=C\c2ccc(Br)o2)C(=O)S1,"inconclusive: 39.8 µM [inhibitor, single point]"
19,O=C(CN1N=C(c2ccccc2)CCC1=O)NCc1cccs1,inactive
20,N#CC(C#N)=c1ccc2c(c1)N1C3=C(CCCC3)CC3CCCCC31N=2 (centres undefined),"inconclusive: 70.8 µM [inhibitor, single point]"
21,CCCCNCCOc1ccccc1-c1ccccc1,"inconclusive: 25.1 µM [inhibitor, partial curve]"
22,Cc1noc(C)c1CCC(=O)N1CCCC(CCC(=O)NCc2ccc(F)c(F)c2)C1 (centres undefined),"inconclusive: 89.1 µM [inhibitor, partial curve, poor fit]"
23,O=C(CCCN1C(=O)/C(=C\c2ccco2)SC1=S)Nc1ccc(O)cc1C(=O)O,active: 25.1 µM

row,SMILES,Potency
1,O=S(=O)(O)c1cccc(N=Nc2c(O)ccc3ccccc23)c1,"inconclusive: 15.8 µM [inhibitor, full curve, poor fit]"
2,CSc1nc(O)c(C(c2ccc(O)cc2)c2c(O)nc(SC)[nH]c2=O)c(=O)[nH]1,"inconclusive: 25.1 µM [inhibitor, single point]"
3,Cc1cc2c(cc1S(=O)(=O)N1CCOCC1)NC(=O)CO2,inactive
4,CC(C)(C)C1CCc2nc(NC(=O)Cc3ccccc3)sc2C1 (centres undefined),inactive
5,Cc1cc(Br)ccc1OCCN1CC(C)OC(C)C1 (centres undefined),"inconclusive: 35.5 µM [inhibitor, partial curve]"
6,COC(=O)c1ccc(Oc2cc(C)nc(SC)n2)cc1,"inconclusive: 7.08 µM [inhibitor, full curve]"
7,COCCNC(=S)NNc1cccc(C(=O)O)c1,"inconclusive: 31.6 µM [inhibitor, partial curve]"
8,O=c1ccccn1Cc1c(F)cccc1Cl,"inconclusive: 6.31 µM [inhibitor, single point]"
9,O=C1CC(N2CCN(S(=O)(=O)c3ccccc3F)CC2)C(=O)N1c1ccccc1F (centres undefined),"inconclusive: 50.1 µM [inhibitor, partial curve, poor fit]"
10,c1ccc(C2Oc3ccccc3C3CC(c4cccs4)=NN32)cc1 (centres undefined),inactive
11,CCN=c1scc(C)n1/N=C/c1cc(Br)c(O)c(OC)c1,"inconclusive: 50.1 µM [inhibitor, partial curve]"
12,C(=N\N1CCN(C2c3ccccc3-c3ccccc32)CC1)/c1ccncc1,"inconclusive: 50.1 µM [inhibitor, partial curve, poor fit]"
13,COC(=O)c1ccc(NCCC(=O)O)cc1,"inconclusive: 31.6 µM [inhibitor, partial curve, poor fit]"
14,COc1cccc(NC(=S)N/N=C2\CC(C)(C)Oc3ccc(O)cc32)c1,"inconclusive: 14.1 µM [inhibitor, full curve, poor fit]"
15,O=C(NCCOc1cccc(Cl)c1Cl)c1cc(-n2cnnc2)ccc1Cl,inactive
16,Cc1cc(-c2n[nH]c(=S)n2/N=C/c2ccc(C)o2)n[nH]1,"inconclusive: 89.1 µM [inhibitor, single point]"
17,S=C(Nc1ccc(Nc2ccccc2)cc1)Nc1ccccn1,"inconclusive: 25.1 µM [inhibitor, full curve]"
18,COc1ccc(C(=O)NC2CCN(C(=S)NCc3ccco3)CC2)cc1,inactive
19,COc1cc(C2CC(=O)Oc3c(C(CCN4CCN(c5ccccc5)CC4)c4ccc(N(C)C)cc4)c(OC)cc(OC)c32)cc(OC)c1OC (centres undefined),"inconclusive: 7.08 µM [inhibitor, full curve] and inconclusive: 17.8 µM [inhibitor, full curve, poor fit]"
20,NS(=O)(=O)c1ccc(NC(=O)Nc2ccccc2)cc1,inactive
21,CCOc1ccc(C(O)(CCC(C)C)C(CN2CCOCC2)c2ccccc2)cc1 (centres undefined),inactive
22,CC(C)c1ccc(NC(=S)NCCc2c[nH]c3ccccc23)cc1,"inconclusive: 56.2 µM [inhibitor, partial curve, poor fit]"
23,O=C(NC(=S)Nc1ccc(S(=O)(=O)Nc2ncccn2)cc1)c1ccc(Br)cc1,"inconclusive: 44.7 µM [inhibitor, partial curve]"
